Test results reported in PubChem BioAssay AID1346428 (National Center for Advancing Translational Sciences (NCATS), 2018).
Where “and” joins values, the source holds several entries; their conditions need not be identical. Equal entries are not always repeated. Screen size: about 48,000 compounds; about 1,200 (2.5%) were called active. Inconclusive results (about 2%) are left out.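 Rule for the calls: active = activation of at least 60% and not above a set upper limit (about 1 call in 100 departs from these limits); inconclusive = activation of 40% to 60%, or above that upper limit; inactive = activation under 40%.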 This is one part of the list.

target: Probable G-protein coupled receptor 32 (Homo sapiens) (UniProt O75388); test: qHTS for Agonists of Human Resolvin D1 Receptor DRV1; settings: CHO-K1 GPR32 beta-arrestin PathHunter luminescence, 90 min; at 76.9 µM; hits give high values; zero percent set by DMSO-only wells; note: 0% is about no effect
Outline: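 Using DMSO wells as EC0, agonist-induced signal was taken as chemiluminescence from beta-Gal reconstituted upon beta-arrestin recruitment to GPR32 in CHO-K1 cells after 90 min compound treatment.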

Sequence of UniProt O75388 (O75388 whole entry, looked up): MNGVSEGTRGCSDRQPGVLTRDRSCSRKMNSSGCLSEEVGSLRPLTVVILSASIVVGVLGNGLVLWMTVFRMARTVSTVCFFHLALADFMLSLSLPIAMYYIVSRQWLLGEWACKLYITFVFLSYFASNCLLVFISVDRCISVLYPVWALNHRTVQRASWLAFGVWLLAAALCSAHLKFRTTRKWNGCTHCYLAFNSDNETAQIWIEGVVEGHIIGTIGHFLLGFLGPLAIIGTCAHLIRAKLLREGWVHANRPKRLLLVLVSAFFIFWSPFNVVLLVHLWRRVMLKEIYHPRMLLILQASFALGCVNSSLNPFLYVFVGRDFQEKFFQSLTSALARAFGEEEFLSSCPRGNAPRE

SMILES | activation
CCOC(=O)c1cnc2c(ccc3ccccc32)c1Nc1ccccc1OC | active: 85%
COc1ccc(-c2noc(CSc3nnc(Cc4ccccc4)n3-c3ccccc3)n2)cc1OC | inactive: -8.72%
CCOC(=O)c1cc(-c2ccccc2)n(CC(=O)NC2CCC(C)CC2)c1C (stereo unspecified) | inactive: -10.2%
O=C(NCCc1csc(-c2ccc(F)cc2)n1)c1cccs1 | inactive: 24.1%
O=C(NC1CC(=O)N(c2ccc3c(c2)OCCO3)C1)c1c(F)cccc1Cl (stereo unspecified) | inactive: 0.14%
COc1ccc(NC(=O)Cn2c(=O)cc(C)c3c(C)nn(-c4cccc(Cl)c4C)c32)cc1OC | inactive: -11.5%
CC(C)Oc1ccc2c(=O)c(-c3ccccc3)coc2c1 | inactive: 34.9% and inactive: 14.5%
Cc1ccc2c(c1)c(=O)c(C(=O)c1ccc3c(c1)OCO3)cn2Cc1cccc(F)c1 | inactive: -22%
COCCNc1oc(-c2ccc(COc3ccc(OC)cc3)o2)nc1C#N | inactive: -10.9%
Cc1ccc(NC(=O)CSc2nc3ccccc3c3nc(CCc4c(C)n[nH]c4C)nn23)c(C)c1 | inactive: -19.6%
Cc1ccc(-c2nn(-c3ccc(F)cc3F)c3c2cnc2c(F)cccc23)cc1 | inactive: -11.1%
Cc1ccccc1C(=O)Nc1nc2nc(C)c(C)c(=O)n2[nH]1 | inactive: 8.6%
CCCc1nn2c(=O)cc(COC(=O)c3ccc(NC(=O)CCc4ccccc4)cc3)nc2s1 | inactive: -17.4%
Cc1nc2c(C(=O)O)cnn2c(C)c1Cc1ccccc1 | inactive: 10.1%
CCc1ccc2oc(-c3cccc(NC(=O)c4cc5ccccc5o4)c3)nc2c1 | inactive: 1.19%
Cc1ccc2nc(N3CCN(c4cccc(Cl)c4)CC3)c3nnnn3c2c1 | inactive: 6.25%
Cc1ccc(C(=O)CSc2ncc3c(n2)-c2ccccc2N(Cc2ccc(Cl)cc2)S3(=O)=O)cc1 | inactive: 0.957%
CC(=O)Nc1nnc(S(N)(=O)=O)s1 | inactive: -15.5% and inactive: 2.8%
CCCCOc1ccc(CNC(=O)c2ccc(-c3nc(CN4CCc5ccccc54)c(C)o3)cc2)cc1 | inactive: -0.679%
Cc1cc2cc3c(C)cc(=O)oc3c(C)c2o1 | inactive: -18.3%
COc1cccc(NC(=O)c2sc3nc4n(c(=O)c3c2C)CCC4)c1 | inactive: -0.378%
CCn1cc2nc(SCC(=O)Nc3ccccc3F)n(Cc3ccc(C)cc3)c(=O)c2n1 | inactive: -5.47%

SMILES | activation
COc1ccc(-c2cc3nc(C)c(CCC(=O)Nc4cccc(C(F)(F)F)c4)c(C)n3n2)c(OC)c1 | inactive: 13.7%
CCc1ccc(-c2nc(CN3CCCC(C(=O)NCc4ccc(C)cc4)C3)c(C)o2)cc1 (stereo unspecified) | inactive: 37.2%
CN1CCN(N)CC1 | inactive: -2.7%
Cc1ccc(CNC(=O)Nc2cn(CC(C)C)c(=O)c3ccccc23)cc1 | inactive: -53.7%
Cc1ccnc(NC(=O)c2c(C)oc3ncn(CC(C)C)c(=O)c23)c1 | inactive: -12.7%
O=C(NCCCN1CCN(c2ccccc2F)CC1)c1cc2c(Cl)nc3ccccc3c2s1 | inactive: 6.6%
Clc1ccc2nsnc2c1NC1=NCCN1 | inactive: -1.97% and inactive: 7.34%
Cc1cc(C)c(NC(=O)CN2c3ccccc3S(=O)(=O)c3ccccc32)c(C)c1 | inactive: -9.22%
CN(C(=O)Cn1cc(S(=O)(=O)N2CCN(c3ccccc3F)CC2)c2ccccc2c1=O)c1ccc(Cl)cc1 | inactive: -3.18%
COCC(C)NC(=O)c1cnn2c(C(F)F)cc(-c3ccccc3)nc12 (stereo unspecified) | inactive: 7.12%
CC(=O)c1ccc(NC(=O)c2cc(-c3ccc4c(c3)OCO4)on2)cc1 | inactive: 6.25%
Cc1nnc(SCc2ccccc2Cl)c2cc3sccc3n12 | inactive: -11.2%
O=C(Nc1sc2c(c1C(=O)Nc1ccc(Cl)cc1)CCCC2)c1cccs1 | inactive: 5.06%
CCCCCOc1ccc(NC(=O)Cc2csc(C)n2)cc1 | inactive: -13.8%
Cc1ccc(C(=O)Nc2ccccc2C(=O)O)cc1S(=O)(=O)N1CCCCCC1 | inactive: 42.8%
CN1CCN(CCCNC(=O)Cn2c(-c3cccs3)cc3cc(Cl)ccc32)CC1 | inactive: 17.2%
Cc1ccc(CN2COc3cc(C)c4c(oc(=O)c5ccccc54)c3C2)cc1 | inactive: -15.3%
COc1cc(OC)c(NC(=O)C(NS(=O)(=O)c2cccc3nsnc23)c2ccccc2)cc1Cl (stereo unspecified) | inactive: -27.2%
CCOc1ccc(NC(=O)c2cnn(-c3ccc(C)c(Cl)c3)c2C2CCNCC2)cc1 | inactive: 5.79%
Cc1ccc2[nH]c(C(=O)Nc3ccccc3)cc2c1 | inactive: -1.18%
COc1ccc(-c2[nH]c(-c3ccccc3)nc2SCC(=O)Nc2ccc3c(c2)OCCO3)cc1 | inactive: -5.73%
CCOc1cc(C2NC(=O)c3c(sc4c3CCN(C)C4)N2)ccc1OC(=O)c1ccccc1Cl (stereo unspecified) | inactive: 6.25%

SMILES | activation
COc1ccc(CCNC(=O)Cn2c(=O)c3cccn3c3ccc(F)cc32)c(OC)c1 | inactive: -20.7%
Cc1ccc(C)c(-c2nnc(NC(=O)c3ccc4c(c3)OCCO4)o2)c1 | inactive: -28.6%
CC(=O)Nc1ccc(Nc2nc3c(S(=O)(=O)c4cccc(Cl)c4)nnn3c3ccsc23)cc1 | inactive: -5.38%
CCN(CC)Cc1c(NC(=O)c2ccc(OC)cc2)sc2c1CCCC2 | inactive: -29.1%
Cc1cc(C)cc(-n2c(C)nc3cc(C(=O)NCc4ccccc4Cl)ccc32)c1 | inactive: -12%
COc1cccc(C(=O)Nc2ccc(-n3nncc3-c3ccccc3)cc2)c1 | inactive: -16%
Cc1ccc(NC(=O)CN2C(=O)CCc3cc(S(=O)(=O)N4CCCCC4)ccc32)cc1C | inactive: 8.73%
COc1ccc(-c2cc(C(=O)Oc3cccc(C)c3)c3cc(C)ccc3n2)cc1 | inactive: 14.9%
COc1ccc(CCNC(=O)c2cnc3sc(N4CCCCC4)nn3c2=O)cc1OC | inactive: 3.62%
Cc1oc2ncn(CC(C)C)c(=O)c2c1C(=O)NCCCN1CCC(C)CC1 | inactive: -12.5%
O=C(COc1ccccc1F)OCc1cc(=O)n2nc(C3CC3)sc2n1 | inactive: 26.5%
Cc1ccc(NC(=O)c2cc3c(=O)n(Cc4ccco4)ccc3nc2C)cc1C | inactive: -20.4%
Cc1ccc(CN(C(=O)COc2ccc(Cl)cc2C)C2CCS(=O)(=O)C2)o1 (stereo unspecified) | inactive: -20.6%
CCOC(=O)c1c(NC(=O)c2cc(CC(C)C)on2)sc(C(C)=O)c1C | inactive: -0.797%
CC[C@@H](C)[C@@H](C(=O)Nc1ccc(C)cc1)N1Cc2ccccc2C1=O | inactive: -2.1%
CCCn1c(=O)c2c(nc3n2CCN3c2ccc(C)cc2)n(C)c1=O | inactive: -10.5%
Cc1nc2sc(C(=O)N(C)c3ccccc3)c(NC(=O)c3ccccc3Cl)c2c(C)c1C | inactive: -11.3%
CSc1ccc(C2c3c(oc4cc(C)cc(C)c4c3=O)C(=O)N2CCO)cc1 (stereo unspecified) | inactive: -10.8%
CCN(CC)C(=O)C1CN2CCc3cc(OC)c(OC)cc3C2CC1OC(C)=O (stereo unspecified) | inactive: -14.3%
Cc1ccc(NC(=O)c2c(C)oc3ccc(O)c(CN4CCOCC4)c23)c(C)c1 | inactive: -1.99%
COc1ccc(C2C(C(=O)Nc3ccccc3OC)=C(C)Nc3c(C(=O)Nc4ccccc4)cnn32)c(OC)c1 (stereo unspecified) | inactive: -16.3%
CCOc1ccc(NC(=O)N(Cc2c[nH]c3ccccc23)C2CCCCCC2)cc1 | inactive: -28.6%

SMILES | activation
COc1cn(CC(=O)Nc2ccccc2)c(CN2CCCCC2)cc1=O | inactive: -4.53%
CC(C)CCNC(=O)CCn1c(=O)c2cccn2c2cccnc21 | inactive: 2.37%
Cc1ccc(OCC(=O)N(Cc2ccco2)Cc2ccco2)cc1C | inactive: -18.1%
CC1=C(C(N)=O)C(c2ccc(C)cc2)n2nc(SCc3ccccc3F)nc2N1 (stereo unspecified) | inactive: 22.1%
CCOC(=O)c1cccc(NC(=O)c2cc(S(=O)(=O)N3CCCC(C)C3)cn2C)c1 (stereo unspecified) | inactive: -1.95%
CC(=O)Nc1ccccc1-c1nc2ccccc2n(CC(=O)c2ccc(Br)cc2)c1=O | inactive: -1.94%
Cc1cc(C)cc(NC2=C(c3ccccc3)C(=O)c3ccccc32)c1 | inactive: -39.2%
COc1cc(C2C(=O)N(C3CCCCC3)CC(=O)N2CCC2=CCCCC2)ccc1OC(C)C (stereo unspecified) | inactive: -16.1%
COc1cccc(CNC(=O)CSc2nnc(C)c3c(C)n(-c4ccccc4)nc23)c1OC | inactive: -5.71%
CCOC(=O)C1CCCN(C(=O)Cn2ncc3c(C)n(Cc4ccccc4F)c(C)c3c2=O)C1 (stereo unspecified) | inactive: -4.64%
COc1cccc(-n2cc(C(=O)Nc3cc(OC)c(OC)c(OC)c3)c3ccccc3c2=O)c1 | inactive: -19.4%
COC(=O)CNC(c1ccccc1)c1cc(Br)ccc1NC(=O)c1ccccc1 (stereo unspecified) | inactive: -6.62%
CCc1cccc(C)c1NC(=O)C1CCN(c2nn3c(=O)cc(C)nc3s2)CC1 | inactive: 14.7%
COc1ccc(-c2cc(C(F)(F)F)nc(SCC(=O)N3CCCCC3C)n2)cc1OC (stereo unspecified) | inactive: -3.54%
N#CSCC(=O)O | inactive: 15.3%
Cc1onc(-c2c(F)cccc2Cl)c1C(=O)Nc1ccc(OC(C)C)cc1 | inactive: -8.16%
Cc1ccc2oc(=O)c3cc(C(=O)Nc4ccccc4C(N)=O)sc3c2c1 | inactive: -2.23%
CCOCCCn1c(=N)c(C(=O)NCc2cccnc2)cc2c(=O)n3cc(C)ccc3nc21 | inactive: 9.66%
CCOC(=O)c1cnc2c(ccc3ccccc32)c1Nc1ccc(OCC)cc1 | inactive: -22.9%
COc1ccc(S(=O)(=O)c2c(O)c3ccc(C(=O)NCc4ccccc4)cc3[nH]c2=O)cc1 | inactive: 10.9%
